The source gives no read counts; variants with many changes may rest on few reads.

To fix the notation:
B1: CPEB3 Ribozyme (parent)
chain: UAACAGGGGGCCACAGCAGAAGCGUUCACGUCGCAGCCCCUGUCAGAUUCUGGUGAAUCUGCGAAUUCUGCUGUAUAUCUC

This data set covers variants of B1. As to the kind of experiment: self-cleavage, relative activity (ratio to wild type); higher = more cleavage; in vitro, sequencing. The method, boiled down: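 For each CPEB3 ribozyme variant, relative activity is its cleaved/total read fraction divided by the unmutated ribozyme's. Barcoded error-prone PCR libraries were transcribed by T7 RNA polymerase (5 hours, 37°C) and held in DNase I for 15 min before an EDTA stop, with cleavage occurring throughout. Template-switching reverse transcription and Illumina sequencing were used to read the RNAs. A 5-read minimum applied, and results are the mean of three batches.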
For the variant UAACAGGGGGCCGCUGCAGAAGCGUUCACGUCGCAGCCCCUGUCAGAUUCUGGUGCAUCUGCGAAUUCUGCCGUAUAUCUC [A13G A15U A56C U72C], the self-cleavage worked out at 0.23.
The result for UAACAGGGGGCCGCGGCAGAAGCGUUCGCGUCGCAGCCCCUGUCAGAUUCUGGUGAAUCUGCGAAUUCAGCUGUAUAUCUC [A13G A15G A28G U69A] reads 0.07.
The same measure for UAACAGGGGGCCCCAGCAGAAGCGUUCACGUCGCAGCCCCUGUCAGAUUCAGGUGAAUCUGCGAAUUCUGCUGCAUAUCUC [A13C U51A U74C]: 1.04.
The result for UAACAGGGGGCCGCAGCGGGAGCGUUCACGUCGCAGCACCUGUCAGAUUCAGGUGAAUCUGCGAAUACUGCUGUAUGUCUC [A13G A18G A20G C38A U51A U67A A77G] reads 0.05; that for UAACAGGGGGCCGCGGCAGAAGCGUUCACGUCGCAGCCCCUGUCAGAUUCUGGUGAAUGUGCGAAUUCUGCCGUAUAUCUC [A13G A15G C59G U72C], 0.2; that for UAACAGGGGGCCGCAGCCGAAGCGUUCAUGUCGCAGCCCCUGUCAGAUUCUGGUGAAUCCGCGAAUUCUGCUGUAUAUCUC [A13G A18C C29U U60C], 0.04.
Take UAACAGGGGGCCGCAGCGGAAGCGUUCACGUCGCAGCCCCAGUCAGAUUCUGGUGAAUCUGCGAAUUCUGCUGUUUAUCUC [A13G A18G U41A A75U]: the self-cleavage worked out at 0.37.
The result for UAACAGGGGGCCGCAGCGGAAGCGCUCACGUCGCAGCCCCAGUCAGAUUCUGGUGAAUCUGCGAACUCUGCUGUGUAUCUC [A13G A18G U25C U41A U66C A75G] reads 0.39; that for UAACAGGGGGCCCCAGCAGAAGCGUUCACGUCGCAGCCCCUGCCAGAUUCUGGUGGAUCUGCGAAUUCUGCUAUAUAUCUC [A13C U43C A56G G73A], 0.59; that for UAACAGGGGGCCGCAGCUGAGGCGUUCACGUCGCAGCCCCUGUCAGAUUCUGGUGAAUCUGCGAAUUCUGCUGUAUAUCUC [A13G A18U A21G], 0.21.
As to UAACAGGGGGCCGCUGCAGAAGCGUUCACGUCGCAGCCCCUGUCAGAUUCUGGUGGAUCUGCGAAUUCUGCUGUAUAUCUC [A13G A15U A56G], the self-cleavage was 0.41.
The result for UAACAGGGGGCCGCAGCGGAAGCGUUCACGUCGCAGCCCCUGCCAGAUUCUGGUGAAUCUGCGAAUUCUGCUGUAUAUCCC [A13G A18G U43C U80C] reads 0.08; that for UAACAGGGGGCCGCGGCAGAAGCGUUCACGUCACAGCCCCUGUCAGAUUCUGGUGAAUCUGCGAAUUCUGCCGUAUAUCUC [A13G A15G G33A U72C], 0.42.
On to UAACAGGGGGCCGCGGCAGAAGCGUUCACGUCGCAGCCCCUGUCAGAUUCUGGUGUAUCUGCGAAUUCUAGUGUGUAUCUC [A13G A15G A56U G70A C71G A75G], for which the self-cleavage was 0.25.
For UAACAGGGGGCCGCGGCAGAAGCGUUCACGUCGCAGCCCCUGUCAGAUUCUGGUGAAUCUGCGAAUUCUGCUGUAUAUCCC [A13G A15G U80C], the self-cleavage was found to be 0.58.
Regarding UAACAGGGGGCCCCAGCAGAAGCGUUCACGUCGCAGCCCCUGUCAGAUUCUGGUGAAUCUGCGAAUUCCGCUGCAUAUCUC [A13C U69C U74C], the self-cleavage turned out to be 0.64.
Take UAACAGGGGGCCGCAGCGGAGGCGUUCGCGUUGCAGCCCCCGUCAGAUUCUGGUGAGUCUGCGAAUUCUGCUGUAUAUCUC [A13G A18G A21G A28G C32U U41C A57G]: the self-cleavage worked out at 0.
On to UAACAGGGGGCCGCAGCGGAAGCGUUCACGUCGCAGCCCCCGUCAGAUUCUGGUGAAUCCGCGAAUUCUGCUGUAUAUCUC [A13G A18G U41C U60C], for which the self-cleavage is 0.31.
The result for UAACAGGGGGCCGCAGCGGAAGCGAUCACGUCGCAGCCCCUGUCAGAUUCUGAUGAAUCUGCGAAUUCUGCUGUAUAUCUC [A13G A18G U25A G53A] reads 0.07.
The same measure for UAACAGGGGGCCGCAGCGGAAGCGUUCACGUUGCAGCCCCUGUCAGAUUUUGGUGAAUCUGCGAAUUCUGCUGUAUACCUC [A13G A18G C32U C50U U78C]: 0.02.
As to UAACAGGGGGCCCCAGCAGAAGCGUUCACGUCGCAGCCCCUGGCAGAUUCUGGUGAAUCCGCGAAUUCUGCUGUAUAUUUC [A13C U43G U60C C79U], the self-cleavage is 0.27.
For the variant UAACAGGGGGCCGCAGCUGAGGCGUUCACGUCGCAGCCCCUGUCAGAUUCUGGUGAACCUGCGAAUUCUGCUGUAUAUCUC [A13G A18U A21G U58C], the self-cleavage came out at 0.11.
UAACAGGGGGCCCCAGCAGAAGCGUUCACGUCGCAGCCCCUGUCAGAUUCUGGUGAAUCCGUGAACUCUGCUGUAUAUCUC [A13C U60C C62U U66C]: the self-cleavage came to 0.14.
The same measure for UAACAGGGGGCCGCCGCAGAAGCGUUCACGUCGCAGCCCCUGUCAGAUUCUGGUUAAUCUGCGAAUUCUGCUGUAUAUCCC [A13G A15C G55U U80C]: 0.53.
In the case of UAACAGGGGGCCGCCGCAGAAGCGUUCACGACGCAGCCCCUGUCAGAUUCUGGUGAAUCUGCGAAUUCUGCUGUAUAUCUC [A13G A15C U31A], the self-cleavage turned out to be 0.34.
As to UAACAGGGGGCCGCAGCGGAAGCGCUCACAUCGCAGCCCCCGUCAGAUCCUGGUGAAUCUGCGAAUUCUGCUGUAUAUCUC [A13G A18G U25C G30A U41C U49C], the self-cleavage worked out at 0.05.
The same measure for UAACAGGGGGCCGCAGCCGAAGCGUUCACGUCGCAGCCCCUGUCAGAUUCCGGUGAAUCUGCGAAUUCCGCUGUAUAUCUC [A13G A18C U51C U69C]: 0.25.
The result for UAACAGGGGGCCGCUGCAGAAGCGUUCACGUCGCAGCCCCUGUCAGGUUCUGGUGACUCUGCGAAUUCUGCUGUUUAUCUC [A13G A15U A47G A57C A75U] reads 0.42; that for UAACAGGGGGCCGCUGCAGAAGCGUUCACGUCGCAGCCCCUGUCAGAUUCUGGCGAAUCACCGAAUUCUGCUGCAUAUCUC [A13G A15U U54C U60A G61C U74C], 0.05; that for UAACAGGGGGCCGCAGCUGUAGCGUUCACGUCGCAGCCCCUGUCAGAUUCUGGUGAAUCUGCGAAUUCUGCUGUAUAUCUC [A13G A18U A20U], 0.09.
The same measure for UAACAGGGGGCCCCAGCAGAAGCGUUCACGUCGCAGCCCCUGGCAGGUUCUGGUGAAUCUGCGAAUUCUGCUGUAUAUCUC [A13C U43G A47G]: 0.33; for UAACAGGGGGCCGCCGCAGAAGCGAUCACGUCGCAGCCCCAGUCGGAUUCUGGUGAAUCUGCGAAUUCUGCUGUAUAUCUC [A13G A15C U25A U41A A45G]: 0.47.
For the variant UAACAGGGGGCCGCGGCUGGAGCGAUCACGUCGCAGCCCCUGUCAGAUUCUGGUGAAUCUGCGAAUCCUGCUGUAUAUAUC [A13G A15G A18U A20G U25A U67C C79A], the self-cleavage came to 0.
The same measure for UAACAGGGGGCCGCAGCGGAAGCGUUCACGUCGCAGCCCCGGUCAGAUUCUGGUGAAUCUGCGAAUUCAGCUGUAUAUCUC [A13G A18G U41G U69A]: 0.34.

The values above are taken from the RNAGym collection of RNA variant scans (doi:10.1093/nar/gkz1192).
